# Measured values: the supplement of paper PMC8728848
# The list shows a part of the results.
# B1: CBM32-4 (Clostridium perfringens), P26831 (protein)
# chain: MGSSHHHHHHSSGLVPRGSHMASVYEPSLVDAYVGDDGAKKAVDGDLKTRVKFLGAPSTGDTIVYDLGQEILVDNLKYVVLDTEVDHVRDGKIQLSLDGETWTDAINIGDGVENGVDDMFSTPLKNGYKHGNQSGGIVPIDSAYVEGDNLNQKARYVRILFTAPYRHRWTVINELMINNGEYIPTVNDPT
# Key:
# Assay in all cases: glycan array binding signal (z-score within array); higher = stronger binding
# Settings in all cases: glycan notation: IUPAC condensed, linker removed
# GalNAc(b1-3)GalNAc = biological target: GalNAc(b1-3)GalNAc
# In short: (§1)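 From the Consortium for Functional Glycomics database, 3228 arrays were curated, keeping only those whose protein sequence was available. Binding is given as a within-array Z-score averaged across arrays sharing a protein sequence and across linkers. Negative Z-scores can be read as non-binding.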
# GalNAc(b1-4)GlcNAc = biological target: GalNAc(b1-4)GlcNAc
# In short: as §1
# Glc(a1-4)Glc = biological target: Glc(a1-4)Glc
# In short: as §1
# Glc(a1-6)Glc(a1-6)Glc = biological target: Glc(a1-6)Glc(a1-6)Glc
# In short: as §1
# Glc(b1-4)Glc = biological target: Glc(b1-4)Glc
# In short: as §1
# Glc(b1-6)Glc = biological target: Glc(b1-6)Glc
# In short: as §1
# GlcA(b1-3)Gal = biological target: GlcA(b1-3)Gal
# In short: as §1
# GlcA(b1-3)GlcNAc = biological target: GlcA(b1-3)GlcNAc
# In short: as §1
# GlcA(b1-6)Gal = biological target: GlcA(b1-6)Gal
# In short: as §1
# [1] = biological target: GlcNAc(a1-3)Gal(b1-4)GlcNAc
# In short: as §1
# [2] = biological target: GlcNAc(a1-6)Gal(b1-4)GlcNAc
# In short: as §1
# [3] = biological target: GlcNAc(b1-2)Gal(b1-3)GalNAc
# In short: as §1
# [4] = biological target: GlcNAc(b1-2)Man(a1-3)[GlcNAc(b1-2)Man(a1-6)]Man(b1-4)GlcNAc(b1-4)GlcNAc
# In short: as §1
# GlcNAc(b1-3)Gal = biological target: GlcNAc(b1-3)Gal
# In short: as §1
# [5] = biological target: GlcNAc(b1-3)Gal(b1-3)GalNAc
# In short: as §1
# GlcNAc(b1-3)Gal(b1-4)Glc = biological target: GlcNAc(b1-3)Gal(b1-4)Glc
# In short: as §1
# [6] = biological target: GlcNAc(b1-3)Gal(b1-4)GlcNAc
# In short: as §1
# [7] = biological target: GlcNAc(b1-3)Gal(b1-4)GlcNAc(b1-3)Gal(b1-4)GlcNAc
# In short: as §1
# GlcNAc(b1-3)GalNAc = biological target: GlcNAc(b1-3)GalNAc
# In short: as §1
# GlcNAc(b1-3)Man = biological target: GlcNAc(b1-3)Man
# In short: as §1
# [8] = biological target: GlcNAc(b1-3)[GlcNAc(b1-4)][GlcNAc(b1-6)]GlcNAc
# In short: as §1
# [9] = biological target: GlcNAc(b1-3)[GlcNAc(b1-6)]Gal(b1-4)GlcNAc
# In short: as §1
# [10] = biological target: GlcNAc(b1-3)[GlcNAc(b1-6)]GalNAc
# In short: as §1
# [11] = biological target: GlcNAc(b1-4)Gal(b1-4)GlcNAc
# In short: as §1
# GlcNAc(b1-4)GlcNAc = biological target: GlcNAc(b1-4)GlcNAc
# In short: as §1
# [12] = biological target: GlcNAc(b1-4)GlcNAc(b1-4)GlcNAc
# In short: as §1
# [13] = biological target: GlcNAc(b1-4)GlcNAc(b1-4)GlcNAc(b1-4)GlcNAc(b1-4)GlcNAc
# In short: as §1
# [14] = biological target: GlcNAc(b1-4)GlcNAc(b1-4)GlcNAc(b1-4)GlcNAc(b1-4)GlcNAc(b1-4)GlcNAc
# In short: as §1
# [15] = biological target: GlcNAc(b1-4)[GlcNAc(b1-6)]GalNAc
# In short: as §1
# [16] = biological target: GlcNAc(b1-6)Gal(b1-4)GlcNAc
# In short: as §1
# GlcNAc(b1-6)GalNAc = biological target: GlcNAc(b1-6)GalNAc
# In short: as §1
# GlcNAc3Prop(b1-4)GlcNAc = biological target: GlcNAc3Prop(b1-4)GlcNAc
# In short: as §1
# Kdn(a2-3)Gal(b1-3)GlcNAc = biological target: Kdn(a2-3)Gal(b1-3)GlcNAc
# In short: as §1
# Kdn(a2-3)Gal(b1-4)GlcNAc = biological target: Kdn(a2-3)Gal(b1-4)GlcNAc
# In short: as §1
# [17] = biological target: Man(a1-2)Man(a1-2)Man(a1-3)Man
# In short: as §1
# [18] = biological target: Man(a1-2)Man(a1-2)Man(a1-6)[Man(a1-3)]Man
# In short: as §1
# Man(a1-2)Man(a1-3)Man = biological target: Man(a1-2)Man(a1-3)Man
# In short: as §1
# [19] = biological target: Man(a1-2)Man(a1-3)[Man(a1-2)Man(a1-6)]Man
# In short: as §1
# [20] = biological target: Man(a1-2)Man(a1-3)[Man(a1-2)Man(a1-6)]Man(a1-6)[Man(a1-2)Man(a1-2)Man(a1-3)]Man
# In short: as §1
# [21] = biological target: Man(a1-2)Man(a1-3)[Man(a1-2)Man(a1-6)]Man(a1-6)[Man(a1-2)Man(a1-2)Man(a1-3)]Man(b1-4)GlcNAc(b1-4)GlcNAc
# In short: as §1
# [22] = biological target: Man(a1-2)Man(a1-3)[Man(a1-6)]Man(a1-6)[Man(a1-2)Man(a1-3)]Man(b1-4)GlcNAc(b1-4)GlcNAc
# In short: as §1
# [23] = biological target: Man(a1-2)Man(a1-6)[Man(a1-3)]Man(a1-6)[Man(a1-2)Man(a1-2)Man(a1-3)]Man
# In short: as §1
# [24] = biological target: Man(a1-2)Man(a1-6)[Man(a1-3)]Man(a1-6)[Man(a1-2)Man(a1-2)Man(a1-3)]Man(b1-4)GlcNAc(b1-4)GlcNAc
# In short: as §1
# Man(a1-3)[Man(a1-6)]Man = biological target: Man(a1-3)[Man(a1-6)]Man
# In short: as §1
# [25] = biological target: Man(a1-3)[Man(a1-6)]Man(a1-6)[Man(a1-2)Man(a1-3)]Man(b1-4)GlcNAc(b1-4)GlcNAc
# In short: as §1
binder,measurement,setting,value
B1,glycan array binding signal (z-score),GalNAc(b1-3)GalNAc,-0.49
same,glycan array binding signal (z-score),GalNAc(b1-4)GlcNAc,-0.44
same,glycan array binding signal (z-score),Glc(a1-4)Glc,-0.347
same,glycan array binding signal (z-score),Glc(a1-6)Glc(a1-6)Glc,-0.125
same,glycan array binding signal (z-score),Glc(b1-4)Glc,0.56
same,glycan array binding signal (z-score),Glc(b1-6)Glc,-0.271
same,glycan array binding signal (z-score),GlcA(b1-3)Gal,-0.024
same,glycan array binding signal (z-score),GlcA(b1-3)GlcNAc,-0.121
same,glycan array binding signal (z-score),GlcA(b1-6)Gal,0.487
same,glycan array binding signal (z-score),[1],-0.069
same,glycan array binding signal (z-score),[2],-0.436
same,glycan array binding signal (z-score),[3],-0.264
same,glycan array binding signal (z-score),[4],-0.4
same,glycan array binding signal (z-score),GlcNAc(b1-3)Gal,-0.348
same,glycan array binding signal (z-score),[5],-0.276
same,glycan array binding signal (z-score),GlcNAc(b1-3)Gal(b1-4)Glc,-0.322
same,glycan array binding signal (z-score),[6],-0.294
same,glycan array binding signal (z-score),[7],-0.423
same,glycan array binding signal (z-score),GlcNAc(b1-3)GalNAc,-0.459
same,glycan array binding signal (z-score),GlcNAc(b1-3)Man,-0.255
same,glycan array binding signal (z-score),[8],-0.436
same,glycan array binding signal (z-score),[9],0.021
same,glycan array binding signal (z-score),[10],-0.289
same,glycan array binding signal (z-score),[11],-0.394
same,glycan array binding signal (z-score),GlcNAc(b1-4)GlcNAc,0.065
same,glycan array binding signal (z-score),[12],-0.265
same,glycan array binding signal (z-score),[13],2.69
same,glycan array binding signal (z-score),[14],3.33
same,glycan array binding signal (z-score),[15],-0.49
same,glycan array binding signal (z-score),[16],-0.437
same,glycan array binding signal (z-score),GlcNAc(b1-6)GalNAc,-0.436
same,glycan array binding signal (z-score),GlcNAc3Prop(b1-4)GlcNAc,-0.448
same,glycan array binding signal (z-score),Kdn(a2-3)Gal(b1-3)GlcNAc,-0.535
same,glycan array binding signal (z-score),Kdn(a2-3)Gal(b1-4)GlcNAc,-0.439
same,glycan array binding signal (z-score),[17],-0.132
same,glycan array binding signal (z-score),[18],-0.373
same,glycan array binding signal (z-score),Man(a1-2)Man(a1-3)Man,-0.021
same,glycan array binding signal (z-score),[19],-0.276
same,glycan array binding signal (z-score),[20],-0.564
same,glycan array binding signal (z-score),[21],0.898
same,glycan array binding signal (z-score),[22],0.141
same,glycan array binding signal (z-score),[23],-0.516
same,glycan array binding signal (z-score),[24],-0.464
same,glycan array binding signal (z-score),Man(a1-3)[Man(a1-6)]Man,-0.553
same,glycan array binding signal (z-score),[25],-0.14
